Test results as given in the supplement of paper PMC8948288.
Shown are siRNA guide strands that differ only in the seed, positions 2 to 7.

Key:
GL261 = experiment: cell viability relative to siNT1 (ATP content); H4 human neuroglioma and GL261 mouse glioma; higher = less toxic; settings: siRNA concentration 25 nM; 96 h; mouse
H4 = experiment: as above; settings: siRNA concentration 10 nM; 96 h; human
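Also: cells reverse transfected with siRNA duplexes via lipid reagent, ATP read by luminescence, triplicate wells, values scaled to mean viability with non-targeting control siNT1.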

Row | Sequence | cell viability (GL261) [%] | cell viability (H4) [%]
1 | UGGCCUAACAUGUAAACCA | 66.4 | 36.2
2 | UGGCCUCACAUGUAAACCA | 17.3 | 27.7
3 | UGGCCUGACAUGUAAACCA | 29.8 | 45.2
4 | UGGCCUUACAUGUAAACCA | 43.7 | 26.4
5 | UGGCGAAACAUGUAAACCA | 19.8 | 93.2
6 | UGGCGACACAUGUAAACCA | 9.86 | 47.8
7 | UGGCGAGACAUGUAAACCA | 14.3 | 17.9
8 | UGGCGAUACAUGUAAACCA | 16.3 | 29.3
9 | UGGCGCAACAUGUAAACCA | 13.8 | 65.5
10 | UGGCGCCACAUGUAAACCA | 14.9 | 27.5
11 | UGGCGCGACAUGUAAACCA | 26.5 | 64.4
12 | UGGCGCUACAUGUAAACCA | 12.4 | 70.1
13 | UGGCGGAACAUGUAAACCA | 10.4 | 43
14 | UGGCGGCACAUGUAAACCA | 4.61 | 26.4
15 | UGGCGGGACAUGUAAACCA | 8.26 | 7.21
16 | UGGCGGUACAUGUAAACCA | 18.6 | 21
17 | UGGCGUAACAUGUAAACCA | 28 | 89.6
18 | UGGCGUCACAUGUAAACCA | 34.6 | 71.9
19 | UGGCGUGACAUGUAAACCA | 32.4 | 61.4
20 | UGGCGUUACAUGUAAACCA | 32 | 74.3
21 | UGGCUAAACAUGUAAACCA | 48.7 | 59.3
22 | UGGCUACACAUGUAAACCA | 21.2 | 47.1
23 | UGGCUAGACAUGUAAACCA | 22.1 | 35.7
24 | UGGCUAUACAUGUAAACCA | 16.2 | 47.4

Row | Sequence | cell viability (GL261) [%] | cell viability (H4) [%]
25 | UGGCUCAACAUGUAAACCA | 17.1 | 26.7
26 | UGGCUCCACAUGUAAACCA | 7.04 | 26
27 | UGGCUCGACAUGUAAACCA | 16.5 | 27.8
28 | UGGCUCUACAUGUAAACCA | 13.3 | 6.82
29 | UGGCUGAACAUGUAAACCA | 18.4 | 55.9
30 | UGGCUGCACAUGUAAACCA | 7.15 | 19.1
31 | UGGCUGGACAUGUAAACCA | 7.29 | 4.57
32 | UGGCUGUACAUGUAAACCA | 12.7 | 44.7
33 | UGGCUUAACAUGUAAACCA | 48 | 61.6
34 | UGGCUUCACAUGUAAACCA | 10.6 | 54
35 | UGGCUUGACAUGUAAACCA | 13.1 | 66.7
36 | UGGCUUUACAUGUAAACCA | 43.9 | 65.9
37 | UGGGAAAACAUGUAAACCA | 39 | 68
38 | UGGGAACACAUGUAAACCA | 25.6 | 62.7
39 | UGGGAAGACAUGUAAACCA | 37.1 | 83.4
40 | UGGGAAUACAUGUAAACCA | 46.3 | 68.1
41 | UGGGACAACAUGUAAACCA | 35.9 | 83.9
42 | UGGGACCACAUGUAAACCA | 24.8 | 80.6
43 | UGGGACGACAUGUAAACCA | 50.2 | 61.9
44 | UGGGACUACAUGUAAACCA | 19.9 | 72.1
45 | UGGGAGAACAUGUAAACCA | 14 | 38.4
46 | UGGGAGCACAUGUAAACCA | 11 | 28.9
47 | UGGGAGGACAUGUAAACCA | 5.49 | 5.13
48 | UGGGAGUACAUGUAAACCA | 6.53 | 42.8

Row | Sequence | cell viability (GL261) [%] | cell viability (H4) [%]
49 | UGGGAUAACAUGUAAACCA | 29.1 | 79.4
50 | UGGGAUCACAUGUAAACCA | 8.7 | 9.65
51 | UGGGAUGACAUGUAAACCA | 17.4 | 41.9
52 | UGGGAUUACAUGUAAACCA | 24 | 57.1
53 | UGGGCAAACAUGUAAACCA | 22.8 | 32.7
54 | UGGGCACACAUGUAAACCA | 16.4 | 30
55 | UGGGCAGACAUGUAAACCA | 12 | 13
56 | UGGGCAUACAUGUAAACCA | 21.9 | 34
57 | UGGGCCAACAUGUAAACCA | 44.8 | 30.7
58 | UGGGCCCACAUGUAAACCA | 21.6 | 29.2
59 | UGGGCCGACAUGUAAACCA | 17.8 | 10.1
60 | UGGGCCUACAUGUAAACCA | 10 | 13
61 | UGGGCGAACAUGUAAACCA | 16.5 | 34.4
62 | UGGGCGCACAUGUAAACCA | 14.4 | 42.2
63 | UGGGCGGACAUGUAAACCA | 11.3 | 5.8
64 | UGGGCGUACAUGUAAACCA | 14.9 | 27.4
65 | UGGGCUAACAUGUAAACCA | 20.3 | 20.5
66 | UGGGCUCACAUGUAAACCA | 7.28 | 20.8
67 | UGGGCUGACAUGUAAACCA | 14 | 9.28
68 | UGGGCUUACAUGUAAACCA | 26.3 | 43.9
69 | UGGGGAAACAUGUAAACCA | 43.1 | 38.7
70 | UGGGGACACAUGUAAACCA | 13.2 | 8.06
71 | UGGGGAGACAUGUAAACCA | 17.5 | 20.4
72 | UGGGGAUACAUGUAAACCA | 13.5 | 27.2

Row | Sequence | cell viability (GL261) [%] | cell viability (H4) [%]
73 | UGGGGCAACAUGUAAACCA | 21.9 | 9.51
74 | UGGGGCCACAUGUAAACCA | 11.5 | 8.28
75 | UGGGGCGACAUGUAAACCA | 10.7 | 13.1
76 | UGGGGCUACAUGUAAACCA | 11.8 | 6.06
77 | UGGGGGAACAUGUAAACCA | 12 | 7.99
78 | UGGGGGCACAUGUAAACCA | 14 | 5.58
79 | UGGGGGGACAUGUAAACCA | 54.6 | 4.82
80 | UGGGGGUACAUGUAAACCA | 11.3 | 4.87
81 | UGGGGUAACAUGUAAACCA | 20.9 | 32.3
82 | UGGGGUCACAUGUAAACCA | 10.6 | 20.7
83 | UGGGGUGACAUGUAAACCA | 6.38 | 10
84 | UGGGGUUACAUGUAAACCA | 24 | 32.1
85 | UGGGUAAACAUGUAAACCA | 25.6 | 40.1
86 | UGGGUACACAUGUAAACCA | 48.2 | 66.4
87 | UGGGUAGACAUGUAAACCA | 9.11 | 21.4
88 | UGGGUAUACAUGUAAACCA | 18.4 | 43.8
89 | UGGGUCAACAUGUAAACCA | 16.8 | 44.2
90 | UGGGUCCACAUGUAAACCA | 7.68 | 28.2
91 | UGGGUCGACAUGUAAACCA | 13 | 27.3
92 | UGGGUCUACAUGUAAACCA | 9.61 | 27.6
93 | UGGGUGAACAUGUAAACCA | 13.7 | 12.4
94 | UGGGUGCACAUGUAAACCA | 9.87 | 11.6
95 | UGGGUGGACAUGUAAACCA | 16.8 | 4.54
96 | UGGGUGUACAUGUAAACCA | 20.9 | 34.5

Row | Sequence | cell viability (GL261) [%] | cell viability (H4) [%]
97 | UGGGUUAACAUGUAAACCA | 39.3 | 61.4
98 | UGGGUUCACAUGUAAACCA | 11.6 | 70.1
99 | UGGGUUGACAUGUAAACCA | 54.8 | 37.5
100 | UGGGUUUACAUGUAAACCA | 65.4 | 82.3
101 | UGGUAAAACAUGUAAACCA | 54 | 104
102 | UGGUAACACAUGUAAACCA | 37.5 | 48
103 | UGGUAAGACAUGUAAACCA | 39.8 | 98.3
104 | UGGUAAUACAUGUAAACCA | 42.1 | 66.5
105 | UGGUACAACAUGUAAACCA | 34.7 | 59.4
106 | UGGUACCACAUGUAAACCA | 24.4 | 59.1
107 | UGGUACGACAUGUAAACCA | 39.5 | 62.3
108 | UGGUACUACAUGUAAACCA | 17.8 | 43.9
109 | UGGUAGAACAUGUAAACCA | 19.7 | 54.6
110 | UGGUAGCACAUGUAAACCA | 26.7 | 33.7
111 | UGGUAGGACAUGUAAACCA | 10.3 | 21.8
112 | UGGUAGUACAUGUAAACCA | 14.9 | 23.4
113 | UGGUAUAACAUGUAAACCA | 57.8 | 86.9
114 | UGGUAUCACAUGUAAACCA | 21.5 | 25.9
115 | UGGUAUGACAUGUAAACCA | 59.8 | 60.5
116 | UGGUAUUACAUGUAAACCA | 44.7 | 60.1
117 | UGGUCAAACAUGUAAACCA | 28 | 49
118 | UGGUCACACAUGUAAACCA | 11.5 | 49.5
